Experimental data from PubChem BioAssay AID686979 (National Center for Advancing Translational Sciences (NCATS), 2013).
“And” between values parts separate entries of the source, which are not always exact repeats. Identical values can stand only once. About 50,000 (12%) of roughly 420,000 compounds were called active. The inconclusive results got no clear call from the source; some entries with a clear call stand among them for comparison. Calls come from the whole dose curve; as a rule, active = well fitted inhibition curve with a large enough effect; inconclusive = small, poorly fitted or top-dose-only effect; inactive = flat fitted curve, though single readings scatter. Where the call is inconclusive, the potency comes from a doubtful curve fit.
Potency is the fitted concentration of half-maximal effect; tags give direction and shape of the fitted curve.

Experiment: qHTS for Inhibitors of human tyrosyl-DNA phosphodiesterase 1 (TDP1): qHTS in cells in presence of CPT; note: nearly all actives have a fitted effect of over 55% in size
Details: chicken DT40 Tdp1-/-;hTDP1 cells + 20 nM CPT, ATP luminescence, 48 h; series mostly up to 46.2 µM
Summary of the method: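 Chicken DT40 Tdp1-/- cells stably complemented with human TDP1 were seeded at 400 cells/well in medium containing 20 nM camptothecin, exposed to pin-transferred compounds, and grown at 37 °C for at least 48 hr. Viability was read as ATP luminescence.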
With `Cc1sc2ccc3sccc3c2[n+]1C` the Potency was active: 8.2 µM. For `COc1ccc(CCNC(=O)CC(c2ccccc2)c2cccc(C)c2O)cc1OC` (stereo unspecified), the Potency was active: 11.6 µM. With `COc1ccc(-n2nnc(-c3nc(-c4ccccc4C)no3)c2N)cc1Cl` the Potency was “inactive”. In the case of `CN(C)S(=O)(=O)c1ccc2c(c1)C(=NO)c1cc(S(=O)(=O)N(C)C)ccc1-2`, the Potency is reported as inconclusive: 11.6 µM [inhibitor, partial curve]. In the case of `COc1ccc(C2CC(=O)c3c([nH]c(C(=O)OC4CCCCCC4)c3C)C2)cc1OC` (stereo unspecified), the Potency is reported as active: 3.66 µM. For `COc1cccc(CNC(=O)CCCn2nc(C)n3c(cc4sccc43)c2=O)c1`, the Potency was inconclusive: 29.1 µM [inhibitor, single point] and inconclusive: 16.4 µM [inhibitor, single point]. In the case of `O=C(Nc1nnc(-c2ccco2)o1)C1CC1`, the Potency is reported as “inactive”. For `Cc1cccc(-c2nc3ccccc3c(=O)n2N)c1`, the Potency was “inactive”. With `O=S(=O)(c1ccccc1F)N1CCC(c2nc3ccccc3[nH]2)CC1` the Potency was inconclusive: 25.9 µM [inhibitor, single point]. For `CCOC(=O)c1c(NC(=O)c2ccc(S(=O)(=O)N(C)CC3CCCO3)cc2)sc2c1CC(C)(C)NC2(C)C` (stereo unspecified), the Potency was inconclusive: 29.1 µM [inhibitor, single point]. With `O=C(NCC(=O)N(Cc1cccs1)C(C(=O)NC1CCCCC1)c1ccco1)c1ccco1` (stereo unspecified) the Potency was “inactive”. For `COc1ccc(-c2cc(C(=O)N3CCN(c4ccc(F)cc4)CC3)no2)cc1OC`, the Potency was inconclusive: 0.58 µM [inhibitor, full curve]. With `COC(=O)c1ccccc1NC(=O)CCc1c(C)nc2c(c(C)nn2-c2ccccc2)c1C` the Potency was “inactive”. In the case of `CCN1C(=O)[C@H]2[C@@H](c3ccc(-c4ccc(F)cc4)c(OC)c3)N[C@@](Cc3ccccc3)(C(=O)OC)[C@H]2C1=O`, the Potency is reported as “inactive”. In the case of `CC(C)OC(=O)Nc1ccc2c(c1)N(C(=O)N1CCN(C)CC1)c1ccccc1CC2`, the Potency is reported as active: 11.6 µM. In the case of `COc1ccc(S(=O)(=O)NCCC(=O)NC2CCCCC2C)cc1[N+](=O)[O-]` (stereo unspecified), the Potency is reported as “inactive”. In the case of `CCCSc1sc(C(=O)OC)c(-c2cccs2)c1C#N`, the Potency is reported as “inactive”. In the case of `CC1(C)CC2(CC(c3ccc(F)cc3)c3ccc(O)cc3O2)NC(=S)N1` (stereo unspecified), the Potency is reported as inconclusive: 18.4 µM [inhibitor, single point]. In the case of `Cc1ccc2c(c1)C(=C(C#N)C#N)C(=O)N2CCN1CCOCC1`, the Potency is reported as active: 16.4 µM. In the case of `COc1ccc(-c2ccc(CN3C(C(C)C)C(=O)N(Cc4cn(CCC5OCCO5)nn4)CCS3(=O)=O)cc2)cc1` (stereo unspecified), the Potency is reported as active: 9.2 µM. For `CN(CC(=O)Nc1cccc(F)c1)C(=O)c1ccccc1Cc1ccccc1`, the Potency was inconclusive: 29.1 µM [inhibitor, single point].
